Here are results for 22 molecules from paper PMC12136788.

This is one part of the list.

To fix the notation:
T1: UNK ZnF1-3 (human, UniProt Q9C0B0 31-174)
T1 sequence: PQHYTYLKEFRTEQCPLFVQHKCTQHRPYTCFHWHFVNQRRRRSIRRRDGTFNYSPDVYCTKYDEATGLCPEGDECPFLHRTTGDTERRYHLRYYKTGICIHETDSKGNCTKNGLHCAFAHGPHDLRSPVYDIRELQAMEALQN

B1: 153574126_153574246_309_5pUTR_ENSG00000196504_ENST00000410080|human|control|control (ssRNA)
RNA: GGGAGUUCUACAGUCCGACGAUCCACUCGGCGUCGCCUGCAUGGGGGGGGGGGAGGAGGAGGACGGAGGAAGUUUCUGCGCCGAGUCCUCCGUCGGGAAAACUCUACCAACUUCCCCAGGGGAAGGGAAGACAACAGUGUCCCCAACAGAGGAUUGAGCAUCA
B2: chr2:9570881:9570882:+_ENSG00000119203_ENST00000238112|hu_mus|hu_hu_hu_mus_False|48_98 (ssRNA)
RNA: GGGAGUUCUACAGUCCGACGAUCACUUGUCUUCUGAAGAAACCAGGGCAGGGCUCCACAGUGAUCCAAAUGGAAAUGACUGAUCAAUAGGAGAUCAAUCUCAGCUGGGUCGAUAAGGUCAAUGUAAGGAAGGGCAUCCAUUCCCAACAGAGGAUUGAGCAUCA
B3: 100036852_100040021_4268_CDS_ENSMUSG00000023026_ENSMUST00000100203|mouse|control|control (ssRNA)
RNA: GGGAGUUCUACAGUCCGACGAUCAUUCACCCAGAUCUCUCCCAGGUGAGAGUCUCCAACAGGUCCUUUGGUCUCAGGAUUGACAAUAACUACUUUUACUCCAGGUAAGAUCUUUCCAGAUUCAGAAAGCAGGAGGCUCUGGGGCAACAGAGGAUUGAGCAUCA
B4: chr2:179515052:179515053:+_ENSMUSG00000000305_ENSMUST00000000314|mus_mus|FALSE|FALSE (ssRNA)
RNA: GGGAGUUCUACAGUCCGACGAUCGCGUUCCCGCGCAGUGACGGUAAAGGCCACCUGCUCUGAGGGGAUCUUCAACUCCCUAGUGGCGAAGACUGUCCCAUCCGCCCCGACUUUGAAGUCCAAGCUGUUGGUCUCAUACUGCAUCAACAGAGGAUUGAGCAUCA
B5: chr8:95500983:95500984:-_ENSG00000164944_ENST00000437199|hu_hu|hu_hu_hu_mus_True|48_68 (ssRNA)
RNA: GGGAGUUCUACAGUCCGACGAUCAGAACACAUCUAUCGAGUAAAGGACCGUACAUGACGGCCUCUAACCACUGCCUCACUAACAAAACUUUCCUCUGAGCCUCCACUGCCGCUAUUUGUACUAGCCCAGGACGGUCCCAGGCCCAACAGAGGAUUGAGCAUCA
B6: chr8:38205342:38205343:-_ENSG00000147548_ENST00000316985|hu_mus|FALSE|FALSE (ssRNA)
RNA: GGGAGUUCUACAGUCCGACGAUCCAGAAUUUCAUGUGGUCUUGUGUUUGGAAUUUCUGAAUGGUAAUAGUCAGUAGGGCUAAAGUUUCUAACUGCACCAAAACCGUUGGCUGACCCAUUGGGAUACUGAUUAUAUGGCGGGUACAACAGAGGAUUGAGCAUCA
B7: chr4:120755967:120755968:-_ENSMUSG00000043207_ENSMUST00000058754|mus_hu|motif|central (ssRNA)
RNA: GGGAGUUCUACAGUCCGACGAUCGAUUGCAUCUUUCAUGAAGAACCCCAAAGUCUGUUGAUUGAAGCCAUGUUUUUCUUCGGUCACAAAAGUAUUAUAAAGACUCCAUGGCAAACCAGUCAAUGCACUGAAAAGUGUAGCCAACAACAGAGGAUUGAGCAUCA
B8: chr2:47389482:47389483:-_ENSG00000143933_ENST00000272298|hu_mus|FALSE|FALSE (ssRNA)
RNA: GGGAGUUCUACAGUCCGACGAUCCUCUGCUGCACUAAUAUAGCCAUUGCCAUCCUUAUCAAACACACGGAAUGCUUCUCUAAUCUCUUCUUCACUGUCUGUGUCUUUCAUUUUUCUUGCCAUCAUUGUCAGAAAUUCAGGGAACAACAGAGGAUUGAGCAUCA
B9: chr2:232320318:232320319:-_ENSG00000115053_ENST00000322723|hu_hu|hu_hu_hu_mus_True|28_58 (ssRNA)
RNA: GGGAGUUCUACAGUCCGACGAUCACUAUUAAAGUCUACAAAACCAAACCCUUUGGAAGAACCAGUUUCCCGAUCAGUAACUAUCCUUGCACGAACAGAGCCCUCAAAUGACUCCUUUAAGGUCUCUUCAGUGGUAUCCUCAGACAACAGAGGAUUGAGCAUCA
B10: chr18:77180173:77180174:+_ENSMUSG00000090000_ENSMUST00000026487|mus_hu|FALSE|FALSE (ssRNA)
RNA: GGGAGUUCUACAGUCCGACGAUCAACCUUUCUGCAUAAAACUGUAUUAUGAGAUAGGCAAACAAUCUCACAAGAUGGUCUGAGACAUAAAAACAAAAGACAACCUAUCCAGCAUCAAUGUCCUAUUGACAAACUCAAUGAAGACAACAGAGGAUUGAGCAUCA
B11: chr4:11166509:11166510:-_ENSMUSG00000040738_ENSMUST00000108319|mus_hu|FALSE|FALSE (ssRNA)
RNA: GGGAGUUCUACAGUCCGACGAUCGUUGAGAUGUACUAUCAGAAGAAGGUACAAGAACAUCACAUGCUUGACAAUAGCCAGCUAACCGCUUCUCAUCUAUGGUACAAUGAAGAGAUAAUGAACCUAUCUCUGCAAUUAGUUCUUCAACAGAGGAUUGAGCAUCA
B12: chr1:6885190:6885191:+_ENSG00000171735_ENST00000473578|hu_hu|FALSE|FALSE (ssRNA)
RNA: GGGAGUUCUACAGUCCGACGAUCUGAACAUUUCGGCAGACAUUCAAGCAGCUUUUUCGGUAAAAAGAUUUUUACAUGACUACUAUUGCUGUUCCCAUGAUCAUCUUCUAUAGGUGGCACGGUGUUGAGAACACAGUAGGUGCUCAACAGAGGAUUGAGCAUCA
B13: chr17:60770872:60770873:+_ENSG00000011028_ENST00000303375|hu_hu|hu_hu_hu_mus_True|8_58 (ssRNA)
RNA: GGGAGUUCUACAGUCCGACGAUCUCUUUAAAAAAAAAAAAAAAAAGACAAACAAUAAUAGCACAUUUCGAGAAUCAUCAACUACAGUAGAGGGUCCGCUUUGAGUUUUUGUUCACAUCGUCCUGCAACGCUGUCGCGGGACUGCAACAGAGGAUUGAGCAUCA
B14: 30248933_30249541_427_3pUTR_ENSMUSG00000024827_ENSMUST00000025778|mouse|control|control (ssRNA)
RNA: GGGAGUUCUACAGUCCGACGAUCAAGGGUCUCUUCAAGCGGAUGCUGGCGGGGACCGUCUUCUCGAUGAGCUCAUCAAUGCUCGCCAGCCCCAGCGCCUGCAGCAUCUCCCUCCGGUCUUUGUCUCCGGGGCCGAUGUGUCUCCAACAGAGGAUUGAGCAUCA
B15: 10608729_10609759_637_CDS_ENSG00000170222_ENST00000379774|human|control|control (ssRNA)
RNA: GGGAGUUCUACAGUCCGACGAUCAAGUCCUUGAGGACUAUUCAGUUCCGUAUUUGGAUUGUGCUCCCUCAAUAUCUUCAUACACUGCUCGUAUUUUGGAGAAGACUGAUCCACGCCCAAGACACUCAAGUCAUAUGCAUCAAGCAACAGAGGAUUGAGCAUCA
B16: chr11:75113396:75113397:+_ENSG00000149273_ENST00000524851|hu_hu|motif|central (ssRNA)
RNA: GGGAGUUCUACAGUCCGACGAUCCCCUCCUAGGAGUUUGUAACGCAGAGACUCUGCCUGGGCAAUGGCACACAGACCUCGGGUGGCCACCUUUUCAGCAUAAAGCUCUACACUGCCCUCUGGAAAGCCAAACCUCUUCUGAACCAACAGAGGAUUGAGCAUCA
B17: chr3:150289777:150289778:+_ENSG00000144895_ENST00000460851|hu_mus|FALSE|FALSE (ssRNA)
RNA: GGGAGUUCUACAGUCCGACGAUCUUUCGCAGGCAUAAAACCAUAAACAGCGCAAAACUCAGUAGAACUGGAAUUCCAAACUACAUCAUAAAUUGGGCCAUUUUUUGGUAAUUGUACCACAGCACUUUCUCCAUUUGUUGCAAUCAACAGAGGAUUGAGCAUCA
B18: chr12:46623017:46623018:-_ENSG00000111371_ENST00000398637|hu_hu|motif|central (ssRNA)
RNA: GGGAGUUCUACAGUCCGACGAUCGAGUCCCAAAAUCCCACUGCCCAUAAUGGCGUUGCUUAGGUUAAAAACAGACAUGCCGGAGGAGGUUGUACCUGGAAUAUACUCAUCACACUUCUUUUUUUCCAAAUGGCUGUUUGUGAGCAACAGAGGAUUGAGCAUCA
B19: chr19:34954956:34954957:+_ENSG00000126261_ENST00000246548|hu_mus|motif|central (ssRNA)
RNA: GGGAGUUCUACAGUCCGACGAUCGAUCAGCAAAGUAUAGUCCUGGAGGAAGUCGUCUGCUUGAAGCCGGCUGCCGUUUCGGAUUCCAAAAUCAGACAACUUCUUGGGGUUAUUGGCUUCUGUCUCUCCCUCUUCUGAAGAUAUCAACAGAGGAUUGAGCAUCA
B20: 148556073_148556459_5406_CDS_ENSMUSG00000063077_ENSMUST00000060537|mouse|control|control (ssRNA)
RNA: GGGAGUUCUACAGUCCGACGAUCUUUGAAAUGCAGGUAUCCUUUCUUAGAUACCACUGAUCCCGCUCUGACUUCUUCAAUGUCUGGAACAAGAUUGAGAAAUUCAUUCUUCCCUGCUCGGGCCAAAUAGGGUGUCUCCACAGUCAACAGAGGAUUGAGCAUCA
B21: chr4:115894766:115894767:+_ENSMUSG00000028698_ENSMUST00000030464|mus_hu|mus_mus_mus_hu_True|28_88 (ssRNA)
RNA: GGGAGUUCUACAGUCCGACGAUCUUCCACACGGAAAUGUACUUCGGGUUUCCAACGGGCCAGUACCAGUCCGGCCAAACUACCCGAACAGGGUCCUCCCCCUCUCUUCUCUCCUCCACAACAAAAUGCCCCCGAACUUUCAAGCAACAGAGGAUUGAGCAUCA
B22: 160215123_160215243_6580_3pUTR_ENSG00000186432_ENST00000334256|human|control|control (ssRNA)
RNA: GGGAGUUCUACAGUCCGACGAUCCUUGAGGCAGAGGUUGCAGUGAGCCGAGAUUGCGCCACUACACUCCAGCCUGGGCCACAGAGCGAGACUGUGUCUCAAAAAAAUAAAAAUAGAAGACUGCACUAAUGCCACCAACGUGCACAACAGAGGAUUGAGCAUCA

This assay deals with T1, UNK ZnF1-3. The assay can be described thus: nsRBNS (natural sequence RNA bind-n-seq); RBNS binding buffer (assumed for nsRBNS): 25 mM Tris pH 7.5, 150 mM KCl, 3 mM MgCl2, 0.01% Triton X-100, 500 ug/ml BSA, 20 U/ml SUPERase-In, 4 C; UNK is unkempt and MSI1 is Musashi-1; names of the RNAs are library labels; protein concentration not given here; high values mean tight binding.
B1 yielded a binding signal of 1.47 enrichment R. With B2 the figure was 1.06 enrichment R; with B3, 1.48 enrichment R; with B4, 0.775 enrichment R.

With B5, the binding signal was 1.16 enrichment R.

As to B6, the binding signal stood at 1.27 enrichment R. With B7 the figure was 1.34 enrichment R; with B8, 0.86 enrichment R; with B9, 0.727 enrichment R. With B10, the binding signal was determined as 0.919 enrichment R. With B11 the figure was 0.897 enrichment R. As for B12, the binding signal was 0.722 enrichment R. Next, B13: 2.3 enrichment R; B14: 0.515 enrichment R.

For the molecule B15, the binding signal worked out at 1.02 enrichment R.

B16 displayed a binding signal of 0.986 enrichment R. Next, B17: 0.84 enrichment R; B18: 1.37 enrichment R; B19: 0.918 enrichment R. As to B20, the binding signal stood at 0.618 enrichment R.

Take B21: the binding signal amounted to 1.15 enrichment R. Next, B22: 2.24 enrichment R.
